Here are results for one molecule from paper PMC6736995, “Insights Into Enhanced Complement Activation by Structures of Properdin and Its Complex With the C-Terminal Domain of C3b” (Frontiers in Immunology, 2019).

Details in all cases: both partners purified
Experiment [1] deals with T1, C3b, biotinylated at the free cysteine of the hydrolysed thioester (human, UniProt P01024 23-667; P01024 partial chain, biotin (EZ-Link Maleimide-PEG2-Biotin) on the free cysteine that is generated after hydrolysis of the reactive thioester).
T1 construct: complement C3 beta chain, human; C3b alpha' chain, human; Coupled to a streptavidin chip through the biotin; also called C3b coated chip; source: generated from C3 (purified from human plasma) with FB and FD, biotinylated, purified by SEC
Put plainly: SPR; apparent KD; biotinylated C3b on a SensEye P-Strep chip; oligomeric properdin injected 1.2 × 10^-4 to 1 μM; 20 mM HEPES pH 7.4, 0.005% Tween-20, 150 mM NaCl; 25°C; Salp20 to regenerate.

The target of experiment [2] is T2, C3 pro-convertase C3bB^dgf‡ generated on a C3b coated chip (human, UniProt P01024 23-667; P01024 partial chain; P00751 26-764, S699A | D279G | N285D, biotin (EZ-Link Maleimide-PEG2-Biotin) on the free cysteine that is generated after hydrolysis of the reactive thioester).
T2 construct: complement C3 beta chain, human; C3b alpha' chain, human; source: formed on the SPR chip: 100 nM FB^dgf‡ injected for 5 min over biotinylated C3b, 5 mM MgCl2; copies: + +
Put plainly: SPR; apparent KD; C3bB^dgf‡ or C3bBb^dgf‡ generated on a C3b coated chip; oligomeric properdin injected 6.1 × 10^-5 to 0.5 μM; 20 mM HEPES pH 7.4, 0.005% Tween-20, 150 mM NaCl, 5 mM MgCl2; 25°C.

For experiment [3], the target named is T3, C3 convertase C3bBb^dgf‡ (human, UniProt P01024 23-667; P01024 partial chain; P00751 260-764, S699A | D279G | N285D, biotin (EZ-Link Maleimide-PEG2-Biotin) on the free cysteine that is generated after hydrolysis of the reactive thioester).
T3 construct: complement C3 beta chain, human; C3b alpha' chain, human; In the convertase stability assay (functional rows) the same complex was formed in solution from C3b that was not biotinylated; source: formed on the SPR chip: FB^dgf‡ (100 nM, 5 min) then FD (100 nM, 5 min) over biotinylated C3b, 5 mM MgCl2; copies: + +
The experiment is described as above.

B1: recombinant full-length properdin (mixture of dimers, trimers and tetramers) (natural protein, human)
chain: GSDPVLCFTQYEESSGKCKGLLGGGVSVEDCCLNTAFAYQKRSGGLCQPCRSPRWSLWSTWAPCSVTCSEGSQLRYRRCVGWNGQCSGKVAPGTLEWQLQACEDQQCCPEMGGWSGWGPWEPCSVTCSKGTRTRRRACNHPAPKCGGHCPGQAQESEACDTQQVCPTHGAWATWGPWTPCSASCHGGPHEPKETRSRKCSAPEPSQKPPGKPCPGLAYEQRRCTGLPPCPVAGGWGPWGPVSPCPVTCGLGQTMEQRTCNHPVPQHGGPFCAGDATRTHICNTAVPCPVDGEWDSWGEWSPCIRRNMKSISCQEIPGQQSRGRTCRGRKFDGHRCAGQQQDIRHCYSIQHCPLKGSWSEWSTWGLCMPPCGPNPTRARQRLCTPLLPKYPPTVSMVEGQGEKNVTFWGRPLPRCEELQGQKLVVEEKRPCLHVPACKDPEEEELAAA
notes: N-terminal Gly-Ser cloning scar from the BamHI site; properdin, human, full-length properdin (res. 28-469); C-terminal extension of three alanines from the NotI site; Mixture of dimeric, trimeric and tetrameric properdin by SEC; also called oligomeric properdin; properdin oligomers; source: HEK293-EBNA, purified from supernatant (Ni-Sepharose Excel, SEC Superdex 200), pooled fractions
As to B1, the Kd in experiment [1] turned out to be 22 ± 2 nM; in experiment [2], 4.6 ± 1 nM; in experiment [3], 4.4 ± 1 nM.
